{"source": "paper PMC4336329", "about": "(PLoS ONE, 2015)", "note": "In all, about 310,000 compounds went through this assay and about 14,000 (4.5%) showed an effect of 50% or more. The effect is printed as a negative number. The list shows a part of the results.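 Note: peak tail current of the secondary pulse compared with the same well before compound.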", "data": [{"biological_target": "human ether-à-go-go-related gene (hERG) potassium channel (human, UniProt Q12809)", "sequence (Q12809 whole entry, looked up)": "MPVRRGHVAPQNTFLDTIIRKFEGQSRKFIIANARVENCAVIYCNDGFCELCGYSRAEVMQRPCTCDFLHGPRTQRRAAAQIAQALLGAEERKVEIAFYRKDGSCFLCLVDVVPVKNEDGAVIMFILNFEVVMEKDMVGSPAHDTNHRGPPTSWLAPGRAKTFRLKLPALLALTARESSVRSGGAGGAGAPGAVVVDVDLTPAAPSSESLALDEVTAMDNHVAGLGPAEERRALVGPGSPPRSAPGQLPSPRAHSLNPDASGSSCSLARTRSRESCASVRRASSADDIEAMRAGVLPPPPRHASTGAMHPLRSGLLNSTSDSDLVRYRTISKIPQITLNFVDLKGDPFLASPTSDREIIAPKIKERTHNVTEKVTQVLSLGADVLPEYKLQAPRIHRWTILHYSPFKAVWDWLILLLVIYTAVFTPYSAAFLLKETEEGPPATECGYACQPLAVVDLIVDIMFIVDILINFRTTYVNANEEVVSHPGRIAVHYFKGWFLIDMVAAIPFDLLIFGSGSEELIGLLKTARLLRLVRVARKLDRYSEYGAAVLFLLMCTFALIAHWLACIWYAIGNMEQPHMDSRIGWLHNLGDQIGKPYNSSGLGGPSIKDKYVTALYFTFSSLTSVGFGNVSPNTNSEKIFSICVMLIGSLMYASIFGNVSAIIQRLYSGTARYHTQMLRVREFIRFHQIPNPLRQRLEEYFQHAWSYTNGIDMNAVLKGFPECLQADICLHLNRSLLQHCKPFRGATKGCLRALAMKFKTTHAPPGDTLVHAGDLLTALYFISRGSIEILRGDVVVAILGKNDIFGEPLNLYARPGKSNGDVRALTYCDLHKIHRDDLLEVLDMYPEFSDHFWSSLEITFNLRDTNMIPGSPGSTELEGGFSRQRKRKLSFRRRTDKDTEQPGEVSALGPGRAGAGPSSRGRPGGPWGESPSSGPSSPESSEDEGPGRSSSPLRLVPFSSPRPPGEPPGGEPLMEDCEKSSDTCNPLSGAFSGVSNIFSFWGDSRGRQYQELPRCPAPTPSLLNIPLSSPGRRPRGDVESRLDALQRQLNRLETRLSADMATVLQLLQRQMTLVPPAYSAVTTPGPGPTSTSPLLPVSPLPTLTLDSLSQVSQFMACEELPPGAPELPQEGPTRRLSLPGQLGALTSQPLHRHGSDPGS", "assay": "primary screen, population patch clamp on CHO cells stably expressing hERG", "units": {"hERG current change (%, negative = inhibition) at 10uM": "%"}, "values": [{"compound": "Cn1c(=O)c(C(=O)c2ccccc2)nc2ccccc21", "hERG current change (%, negative = inhibition) at 10uM": -14.2}, {"compound": "Cn1c(=O)c2c(-c3ccccc3)n(C3CCCCC3)cc2n(C)c1=O", "hERG current change (%, negative = inhibition) at 10uM": 7.3}, {"compound": "CCOc1ccc2nc(NC(=O)c3ccc(S(=O)(=O)N4CCOCC4)cc3)sc2c1", "hERG current change (%, negative = inhibition) at 10uM": 6.64}, {"compound": "CCCCSc1nnc(-c2ccccc2)c2ccccc12", "hERG current change (%, negative = inhibition) at 10uM": -37.3}, {"compound": "O=C(NCC(=O)N(c1ccc(F)cc1)C(C(=O)NC1CCCC1)c1cccnc1)c1cccs1", "note": "(centres unmarked)", "hERG current change (%, negative = inhibition) at 10uM": 7.21}, {"compound": "O=C(COC(=O)c1cccnc1Cl)Nc1nc(-c2ccccc2)cs1", "hERG current change (%, negative = inhibition) at 10uM": -10.3}, {"compound": "Cc1cccc(NC(=O)CCNS(=O)(=O)c2cc(Br)cnc2N)c1C", "hERG current change (%, negative = inhibition) at 10uM": 15.8}, {"compound": "O=C(CN1CCc2ccccc21)NC(=O)NCc1ccccc1", "hERG current change (%, negative = inhibition) at 10uM": 0.748}, {"compound": "CCC(=O)Oc1oc(-c2ccccc2)nc1C=Nc1ccccc1OC", "hERG current change (%, negative = inhibition) at 10uM": 13.1}, {"compound": "O=C(CSc1ncn[nH]1)NCCc1ccc(Cl)cc1", "hERG current change (%, negative = inhibition) at 10uM": -25.6}, {"compound": "CCOc1ccccc1C1C(C(=O)Nc2ccc(OC)cc2)=C(C)Nc2nc(CCCO)nn21", "note": "(centres unmarked)", "hERG current change (%, negative = inhibition) at 10uM": 0.38}, {"compound": "COc1cc(NC(=O)C2CC(c3cccc(OC)c3OC)=NO2)cc(OC)c1OC", "note": "(centres unmarked)", "hERG current change (%, negative = inhibition) at 10uM": -17}, {"compound": "O=C(Cc1ccccc1)N/N=C/c1ccc(S(=O)(=O)[O-])o1", "hERG current change (%, negative = inhibition) at 10uM": 26.2}, {"compound": "C/C(=N\\OC(=O)c1c(-c2ccccc2Cl)noc1C)c1nccs1", "hERG current change (%, negative = inhibition) at 10uM": -2.44}, {"compound": "Cc1cc(Nc2ccc3c(c2)OCCO3)n2ncnc2n1", "hERG current change (%, negative = inhibition) at 10uM": -42.7}, {"compound": "CCOC(=O)CNC(=O)CNC(=O)c1nn(-c2ccc(OC)c(Cl)c2)c(=O)c2ccccc12", "hERG current change (%, negative = inhibition) at 10uM": 2.21}, {"compound": "C[N+]1(C)[C@@H]2CC[C@H]1CC(OC(=O)C(c1ccccc1)c1ccccc1)C2.[I-]", "note": "(some centres unmarked)", "hERG current change (%, negative = inhibition) at 10uM": 18}, {"compound": "CC(NC(=O)c1cccnc1)C(c1cccs1)N1CCN(c2ccccc2F)CC1", "note": "(centres unmarked)", "hERG current change (%, negative = inhibition) at 10uM": -12.3}, {"compound": "CCN(CC)S(=O)(=O)c1ccc(NS(=O)(=O)c2ccc3oc(=O)[nH]c3c2)cc1", "hERG current change (%, negative = inhibition) at 10uM": 22.3}, {"compound": "COc1ccccc1N1CCN(C(=O)CN(c2cc(C)cc(C)c2)S(C)(=O)=O)CC1", "hERG current change (%, negative = inhibition) at 10uM": 0.227}, {"compound": "COc1cc(/C=C2\\SC(=N)N(c3ccc4c(c3)OCO4)C2=O)cc(OC)c1O", "hERG current change (%, negative = inhibition) at 10uM": 8.13}, {"compound": "CCC(=O)NC(c1ccco1)c1cc(Cl)c2cccnc2c1OC", "note": "(centres unmarked)", "hERG current change (%, negative = inhibition) at 10uM": -7.91}, {"compound": "C=CCOc1ccccc1OCC(O)CNC(C)C.Cl", "note": "(centres unmarked)", "hERG current change (%, negative = inhibition) at 10uM": -9.52}, {"compound": "O=C(NCc1ccccn1)c1ccc(=O)oc1", "hERG current change (%, negative = inhibition) at 10uM": 1.42}, {"compound": "O=C(c1nc2ccccn2c1CN1CCCC(c2nc3ccccc3o2)C1)N1CCCC1", "note": "(centres unmarked)", "hERG current change (%, negative = inhibition) at 10uM": 5.11}, {"compound": "O=C(CCc1ccccc1)N1CCN(c2ccc(Cl)cc2)CC1", "hERG current change (%, negative = inhibition) at 10uM": -35.1}, {"compound": "O=S(=O)(Nc1ncccn1)c1ccc(NC(=S)NCc2ccco2)cc1", "hERG current change (%, negative = inhibition) at 10uM": 20.3}, {"compound": "CCC(=O)Nc1ccc(S(=O)(=O)N2CCOCC2)cc1", "hERG current change (%, negative = inhibition) at 10uM": -6.39}, {"compound": "CC(=O)N1CCc2cc(Br)cc(S(=O)(=O)N3CCCCCC3)c21", "hERG current change (%, negative = inhibition) at 10uM": -17.5}, {"compound": "CC1=NN(c2ccc(C)cc2)C(=O)/C1=C\\C=C\\c1ccccc1", "hERG current change (%, negative = inhibition) at 10uM": 16}, {"compound": "Cn1c(=O)oc2cc(S(=O)(=O)NCCCN3CCCC3=O)ccc21", "hERG current change (%, negative = inhibition) at 10uM": 17.2}, {"compound": "COc1ccc(C)cc1N(C(=O)c1snc(C(N)=O)c1N)C(C(=O)NC1CCCC1)c1ccc(F)cc1", "note": "(centres unmarked)", "hERG current change (%, negative = inhibition) at 10uM": -16.1}, {"compound": "O=C(N/N=C/c1ccoc1)c1cccc(OC(F)(F)C(F)F)c1", "hERG current change (%, negative = inhibition) at 10uM": -11.6}, {"compound": "Cc1cccc(NC(=O)c2ccc(C(=O)c3ccccc3)o2)c1", "hERG current change (%, negative = inhibition) at 10uM": -1.01}, {"compound": "Cc1cc(C)cc(NC(=O)Nc2ccc(Cl)cn2)c1", "hERG current change (%, negative = inhibition) at 10uM": 17.8}, {"compound": "CSc1ccc(/C=N\\NC(=O)CNc2ccc(C)cc2)cc1", "hERG current change (%, negative = inhibition) at 10uM": -2.08}, {"compound": "Cc1ccc(-n2c(C)nc3c(cnn3-c3ccc(F)cc3)c2=O)cc1C", "hERG current change (%, negative = inhibition) at 10uM": 18.8}, {"compound": "CC(=O)N1CCN(c2ccc(NCc3cccs3)cc2)CC1", "hERG current change (%, negative = inhibition) at 10uM": 8.42}, {"compound": "CC(C)C(NC(=O)CCN1C(=O)c2ccccc2C1=O)c1ccccc1", "note": "(centres unmarked)", "hERG current change (%, negative = inhibition) at 10uM": 11.4}, {"compound": "C=C1CCC[C@]2(C)C[C@H]3OC(=O)C(CN(C)CC(OC)OC)[C@H]3CC12", "note": "(some centres unmarked)", "hERG current change (%, negative = inhibition) at 10uM": 18.1}, {"compound": "COc1nc(Nc2ccc(O)cc2)nc(OC(C(F)(F)F)C(F)(F)F)n1", "hERG current change (%, negative = inhibition) at 10uM": -38.9}, {"compound": "O=C(CN(c1ccc2c(c1)OCCO2)S(=O)(=O)c1ccccc1)NCC1CCCO1", "note": "(centres unmarked)", "hERG current change (%, negative = inhibition) at 10uM": -3.97}, {"compound": "O=C(O)c1ccc2nc(-c3ccccc3)sc2c1", "hERG current change (%, negative = inhibition) at 10uM": 8.93}, {"compound": "Cc1ccc(NC(=O)C2CCCN2C(=O)Oc2ccccc2)cc1C", "note": "(centres unmarked)", "hERG current change (%, negative = inhibition) at 10uM": -11.4}, {"compound": "CCOc1ccc(S(=O)(=O)NCCC(=O)N(C)Cc2ccc(C)o2)cc1", "hERG current change (%, negative = inhibition) at 10uM": -24.1}, {"compound": "CCOn1c(=O)c(-c2ccc(OC)cc2)[n+]([O-])c2ccccc21", "hERG current change (%, negative = inhibition) at 10uM": -8.86}, {"compound": "CCCCN(C)C(=O)c1nc2ccccn2c1CN1CCN(c2ncccn2)CC1", "hERG current change (%, negative = inhibition) at 10uM": -10.2}, {"compound": "COC(=O)CSc1nnc(CNC(=O)c2cccs2)n1-c1cc(OC)ccc1OC", "hERG current change (%, negative = inhibition) at 10uM": -5.9}, {"compound": "CCN1CNC(=S)N(c2cccc(C)c2C)C1", "hERG current change (%, negative = inhibition) at 10uM": 1.39}, {"compound": "O=C(CCCN1C(=O)[C@H]2CC=CC[C@H]2C1=O)NCc1nc(-c2ccccc2)no1", "hERG current change (%, negative = inhibition) at 10uM": 18.6}, {"compound": "COc1ccc(C)cc1NC(=O)CSc1nnc(-c2ccc(Br)cc2)o1", "hERG current change (%, negative = inhibition) at 10uM": -1.05}, {"compound": "O=C(O)c1cccc(N2C(=O)CSC2=S)c1", "hERG current change (%, negative = inhibition) at 10uM": 12.8}, {"compound": "O=C(Nc1cccc2c1CCCC2)c1ccncc1", "hERG current change (%, negative = inhibition) at 10uM": -1.71}, {"compound": "CC(C)(C)c1ccc(C(=O)NCC(=O)N2CCNC(=O)C2)cc1", "hERG current change (%, negative = inhibition) at 10uM": -3.47}, {"compound": "Cc1oc(-c2ccccc2Cl)nc1CSc1nc2c(c(=O)[nH]1)CCC2", "hERG current change (%, negative = inhibition) at 10uM": 12.1}, {"compound": "Cc1c(NP(=S)(C(C)(C)C)C(C)(C)C)c(=O)n(-c2ccccc2)n1C", "hERG current change (%, negative = inhibition) at 10uM": 9.18}]}]}
